Over roughly 110,000 compounds, “z-score” has its median near -0.1; the highest 2% begin near 2. The list shows a part of the results.
Biological target: Metabotropic glutamate receptor 8 (Rattus norvegicus) (UniProt P70579)
Assay: mGluR8 Gi/Go-coupled signaling modulation – cell-based, rat, thallium flux, HTS, primary screen (AID 488969)
Conditions: HEK293 rat mGluR8, GIRK (G protein-gated inwardly rectifying potassium channel) thallium flux, FluoZin2; at 10 µM; stronger effect = higher value; submaximal glutamate (EC20) added with thallium

Chain of UniProt P70579 (P70579 whole entry, looked up): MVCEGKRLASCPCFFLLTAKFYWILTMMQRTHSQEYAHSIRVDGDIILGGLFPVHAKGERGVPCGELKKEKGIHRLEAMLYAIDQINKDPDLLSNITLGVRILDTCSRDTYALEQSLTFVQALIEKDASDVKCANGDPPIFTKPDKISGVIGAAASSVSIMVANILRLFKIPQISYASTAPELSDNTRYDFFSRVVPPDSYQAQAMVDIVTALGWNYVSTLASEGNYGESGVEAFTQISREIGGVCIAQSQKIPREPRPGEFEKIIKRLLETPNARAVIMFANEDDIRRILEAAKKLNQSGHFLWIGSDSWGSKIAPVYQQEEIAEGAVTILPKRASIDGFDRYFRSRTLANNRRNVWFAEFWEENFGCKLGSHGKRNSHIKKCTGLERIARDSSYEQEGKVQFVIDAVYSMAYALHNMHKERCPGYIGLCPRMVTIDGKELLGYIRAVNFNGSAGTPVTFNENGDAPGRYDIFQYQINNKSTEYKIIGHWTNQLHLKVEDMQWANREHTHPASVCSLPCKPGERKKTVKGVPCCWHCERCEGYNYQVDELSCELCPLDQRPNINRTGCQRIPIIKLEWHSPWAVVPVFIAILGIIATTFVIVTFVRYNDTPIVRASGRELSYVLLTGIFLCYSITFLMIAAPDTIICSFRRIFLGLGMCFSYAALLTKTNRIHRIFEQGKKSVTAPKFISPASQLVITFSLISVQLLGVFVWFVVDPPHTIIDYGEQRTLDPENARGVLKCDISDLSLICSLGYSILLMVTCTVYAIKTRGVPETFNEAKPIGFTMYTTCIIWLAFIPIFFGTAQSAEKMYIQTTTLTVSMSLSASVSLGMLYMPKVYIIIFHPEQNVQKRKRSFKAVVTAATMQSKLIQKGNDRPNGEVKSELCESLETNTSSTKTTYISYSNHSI

SMILES | z-score
CCOC(=O)c1cc(CC)sc1/N=C/C1=C(O)CC(C)(C)CC1=O | -0.513
CC1(C)C2CCC1(CS(=O)(=O)Nc1ccc(S(=O)(=O)N3CCCCC3)cc1)C(=O)C2 (centres undefined) | -0.337
Cc1ccc(-c2nnc(SCC(=O)Nc3ccc4c(c3)oc3ccccc34)n2C)c(Cl)c1 | 0.013
CCC(=O)N1CCN(c2ccc(Cl)cc2NC(=O)c2ccc(N3CCCC3)c([N+](=O)[O-])c2)CC1 | -1.34
COc1ccccc1NC(=O)CN(c1ccc(C23CC4CC(CC(C4)C2)C3)cc1)S(C)(=O)=O | -0.0531
CN1c2ccsc2/C(=N/NC(=O)c2c(F)cccc2F)CS1(=O)=O | 0.0596
CC1(C(=O)NC2CCCC2)CCC(=O)N1Cc1ccc2c(c1)OCO2 (centres undefined) | 0.0571
COc1cc(/C=N/N2C(=O)C3C4c5ccccc5C(c5ccccc54)C3C2=O)ccc1O (centres undefined) | -0.257
O=C(NCc1ccco1)C(c1ccco1)N(C(=O)Cn1nnc2ccccc21)c1ccc2c(c1)CCC2 (centres undefined) | -0.52
CCOc1cc(/C=N/NC(=O)c2cccs2)ccc1OC(=O)N1CCOCC1 | 0.027
O=C1C2CSCN2C(=O)CN1CCCN1CCN(C(c2ccccc2)c2ccccc2)CC1 (centres undefined) | -0.2
Clc1ccc(Cn2ncc3c(NCCN4CCOCC4)ncnc32)cc1 | -0.0527
CCCCNC(=O)c1cc(-c2ccc(OC)cc2)on1 | -0.379
CN(C)Cc1c(O)ccc2c3c(c(=O)oc12)CCCCC3 | 0.385
NS(=O)(=O)c1ccc(CCNC(=O)CSc2ccccc2)cc1 | 0.222
Cc1ccccc1-n1ncc2c(SCC(=O)NCc3cccs3)ncnc21 | 0.377
CN(C(=O)COC(=O)c1nc(-c2ccccc2)n(-c2ccccc2)n1)C1CCS(=O)(=O)C1 (centres undefined) | -0.248
Cc1[nH]c(C(=O)O)c(C)c1C(=O)OC(C)C | 0.61
Clc1ccc(Cl)c(-c2nn3c(COc4ccccc4)nnc3s2)c1 | -0.0514
CCOc1ccccc1NC(=O)N1CCC(NC(=O)c2ccccc2C)CC1 | 0.154
Clc1cccc(-c2nnc3sc(-c4ccccc4)nn23)c1 | -0.275
O=C1OC(c2cccs2)=N/C1=C\c1ccc(-c2cccc(Cl)c2)o1 | -0.0971

SMILES | z-score
CN(C)S(=O)(=O)c1ccc(C(=O)Nc2ccccc2F)cc1 | 0.0546
O=C(CSc1nnc2scc(-c3ccc(Cl)cc3)n12)NCc1ccco1 | -0.632
COC(=O)c1sc(NC(=O)/C=C/c2ccc(C)o2)nc1C | -0.15
O=[N+]([O-])c1ccc(C=Nc2ccc(Cl)cc2Cl)s1 | -0.132
O=C(c1cccs1)N1CCN(CCCc2ccccc2)CC1 | -0.15
Clc1ccc(CSc2cc3c(nn2)-c2ccccc2CC3)cc1Cl | 0.0327
COc1ccc(/C=N/NS(=O)(=O)c2ccccc2)cc1OC(=O)c1ccc(C)cc1 | -0.389
O=C(O)c1ccc(COc2ccc(Cl)cc2)o1 | -0.229
CCCNC(=O)CS(=O)Cc1nc(-c2cccc(OC)c2)oc1C (centres undefined) | 0.115
O=S(=O)(NCC(c1ccco1)N1CCN(c2ccccc2)CC1)c1ccc(F)cc1 (centres undefined) | 0.133
O=C(c1ccc(Cl)cc1)c1ccc(OCC(O)CN2CCCCC2)cc1 (centres undefined) | 1.56
COc1cccc2cc(C(=O)N(C)C3CCN(C)CC3)c(=O)oc12 | -0.0112
COCCn1c(SCC(=O)NCc2ccco2)nnc1C(C)C | 0.369
Cc1occc1-c1nnc(SCC(=O)Nc2nccs2)n1CCc1ccccc1 | -2.74
COC(=O)CSc1nnc(-c2ccncc2)n1N | 0.0257
CN(C)c1ccc(C(=O)c2ccccc2)cc1 | 0.00483
COc1ccccc1OCC(=O)Nn1c(=S)[nH]c2ncccc2c1=O | 1.87
COCCNc1nc(SCc2ccccc2)nc2sc3c(c12)CCC3 | 0.854
Cc1cc(C)cc(N(CC(=O)NCc2ccco2)S(=O)(=O)c2c(C)noc2C)c1 | -0.278
CC(C)(C)c1ccc(S(=O)(=O)NCc2ccc(C(=O)N3CCOCC3)cc2)cc1 | -0.704
O=C(NC12CC3CC(CC(C3)C1)C2)c1ccc(-c2ccc(Cl)cc2)o1 | -0.444
CNC(=S)NNC(=O)c1sccc1OCc1ccc(C)cc1 | -0.339

SMILES | z-score
COC(=O)c1ccc(-c2nn(C)c(=O)c3ccccc23)cc1 | -0.125
O=C(C1Cc2ccccc2CN1S(=O)(=O)c1cccs1)N1CCCCCC1 (centres undefined) | -0.0293
CC(=O)c1ccc(Sc2nnnn2-c2ccccc2)c([N+](=O)[O-])c1 | -0.166
COc1ccccc1CNS(=O)(=O)c1cccc(S(=O)(=O)N2CCOCC2)c1 | 0.49
O=C(/C=C/c1ccccc1F)c1ccoc1 | -0.0402
CC(CCc1ccc(O)cc1)NC1C2CC3CC(C2)CC1C3 (centres undefined) | 0.0712
CCN(C(=O)CSc1ccc2c(c1)OCCO2)C1CCS(=O)(=O)C1 (centres undefined) | 1.48
CNC(=O)C1CC(=O)N(Cc2ccc(OC)c(OC)c2)C(=Nc2ccc(OC)cc2)S1 (centres undefined) | -0.199
CCc1ccc(C2=NN(CCC(=O)NC3CC3)C(=O)CC2)cc1 | 0.0546
NC(=O)C1(N2CCCCC2)CCN(CC(=O)Nc2cc(Cl)ccc2Cl)CC1 | 0.943
O=C(NCCc1cccs1)C1CC(c2ccc([N+](=O)[O-])cc2)=NO1 (centres undefined) | -0.122
CC1(C)Cc2noc(N)c2C(C)(C)N1O | -0.062
CN(c1ccccc1C(=O)N1CCCC1)S(C)(=O)=O | 0.0147
O=C(COC(=O)COc1ccccc1[N+](=O)[O-])Nc1ccccc1Br | -0.59
CCn1nnc(NC(=O)c2c(OC)cccc2OC)n1 | -0.842
Cc1cc(C)c2nc(C(F)(F)F)nc(NCCCN3CCOCC3)c2c1 | -0.573
COc1ccc(-c2csc(C3=C(O)CN(Cc4ccc(S(N)(=O)=O)cc4)C3=N)n2)cc1OC | 1.13
CCOC(=O)c1c(NC(=O)C2CCN(S(=O)(=O)c3ccc(Cl)cc3)CC2)sc2c1CCCC2 | 0.0212
Cc1cc(C(=O)O)c(CSCc2cc(C(=O)O)oc2C)o1 | -0.129
CCOC(=O)N1CCN(C(=O)CN(c2cc(C(F)(F)F)ccc2Cl)S(C)(=O)=O)CC1 | 0.421
COc1ccc(/C=C/C(=O)c2ccc(O)cc2)cc1CN1CCOCC1 | 0.0326
O=C(COC(=O)c1cc(Br)c(Br)s1)NCCC1=CCCCC1 | 0.0854

SMILES | z-score
NC(=O)COC(=O)CCCc1nc2ccccc2s1 | 0.269
Cn1cc(/C=C2\SC(=O)N(c3ccccc3)C2=O)c2ccccc21 | -0.469
COC(=O)CSc1nc(N)c2c3c(sc2n1)C(c1ccccc1)SC(c1ccccc1)C3 (centres undefined) | 0.318
CC(=O)C1=C(C)OC(N)=C(C#N)C1c1cc2cc(C)c(C)cc2nc1Cl (centres undefined) | -0.284
Cc1cccc2cc3c(N)c(C(=O)N4CCCc5ccccc54)sc3nc12 | -0.135
O=C(CN1C(=O)S/C(=C\c2ccccc2)C1=O)NNC(=O)c1ccccc1O | -0.409
O=c1nc(N2CCOCC2)nc2n1CCO2 | 0.234
Cc1cc(N)n2nc(-c3ccc(C(C)(C)C)cc3)cc2n1 | -0.0328
CC(=O)c1sc(NC(=O)CN2C(=O)CCC2=O)nc1C | 0.288
O=C(O)CCN1/C(=C/C=Nc2ccccc2)Oc2ccccc21 | -0.32
CCOC(=O)N1CCC(Nc2ccc3nnc(-c4ccccc4)n3n2)CC1 | -0.665
COc1ccc(S(=O)(=O)N2CCCCC2)cc1NC(=S)Nc1ccccc1 | -0.00191
COc1ccc(-n2nc(C(=O)O)nc2-c2ccccc2)cc1 | -0.0709
O=C(NCc1ccco1)c1nnc(Cc2ccc(Cl)cc2)o1 | 0.217
CC1=C(C(=O)OCc2ccccc2)C(/C=C/c2ccccc2)NC(=S)N1 (centres undefined) | -0.173
Cc1ccc(-c2nc3ccccn3c2NC(=O)c2ccco2)cc1 | 0.65
COc1ccc(C(C)=O)cc1CSc1nnc(C)n1-c1ccccc1 | 0.0069
CC(Cc1ccccc1)NC(=O)C1(c2ccccc2)CCOCC1 (centres undefined) | -0.096
C/C(=N\NC(=O)C1CCCN(S(=O)(=O)c2ccccc2)C1)c1ccncc1 (centres undefined) | -0.155
O=C(COC(=O)CC(c1ccccc1)c1ccccc1)Nc1cccc(F)c1 | -0.211
COCCn1c(=NC(=O)c2nc3ccccc3s2)sc2cc(S(C)(=O)=O)ccc21 | 0.125
CC(C)(C)n1c(=O)[nH]c2c(c1=O)CCC2 | -0.464

SMILES | z-score
COc1ccc(NC(=O)C2c3cc(OC)c(OC)cc3C(=O)N(C)C2c2cccnc2)cc1OC (centres undefined) | 0.738
NC(=O)c1sc(=S)n(-c2ccc(Br)cc2)c1N | 0.583
CCOC(=O)CSC1=Nc2ccccc2C2=NC(CC(=O)NCc3ccccc3)C(=O)N12 (centres undefined) | 2.91
Cc1ccc(-c2noc(CCC(=O)Nc3ccc(C)cn3)n2)cc1 | 0.185
CCCCOc1cccc(C2(C(=O)O)CCCC2)c1 | -0.346
O=C1[C@@H]2[C@H](C(=O)N1n1cnnc1)[C@H]1C=C[C@@H]2C1 | 0.215
Cc1cccc(NC(=O)c2sc(Cl)nc2C)c1C | 0.181
CCOC(=O)Cc1csc(NC(=O)CSc2nnc(Cc3csc(N)n3)n2C)n1 | -0.281
O=C(NCCc1ccccn1)C(F)(F)C(F)(F)C(F)(F)C(F)(F)C(F)(F)C(F)(F)C(F)(F)C(F)F | -0.304
CCN(CC)S(=O)(=O)c1ccc(NC(=O)COC(=O)CN2C(=O)c3ccccc3C2=O)cc1 | -0.531
COc1ccc(S(=O)(=O)NCc2ccc(C(=O)N(C)Cc3ccco3)cc2)cc1 | -0.126
Cc1cc(C)n(CC(O)COc2cccc(OCC(O)Cn3nc(C)cc3C)c2)n1 (centres undefined) | 1.67
CC1CN(S(=O)(=O)c2cccc(C(=O)NN3CCN(C)CC3)c2)CC(C)O1 (centres undefined) | -0.128
N#Cc1nc(COc2ccc(Br)cc2)oc1N1CCN(Cc2ccccc2)CC1 | -0.248
FC(F)(F)c1cc(-c2cccs2)nc(-n2cc(Br)cn2)n1 | -0.203
CC(C)c1nc(SCC(=O)N2CCCC2)c2ccccc2n1 | -0.322
O=C(O)Cn1nnnc1-c1ccc(F)cc1 | 0.777
N#CCc1nn(-c2ccccc2)c(N)c1C#N | -0.151
CN1C(=O)CSC1=NCC12CC3CC(CC(C3)C1)C2 | -0.123
COc1ccc(NC(=O)C(c2ccccc2)N(C)C(=O)c2ccc(=O)[nH]c2)cc1 (centres undefined) | -0.215
CCOc1cc(/C=C2/C(=O)N(c3ccccc3)N=C2C)ccc1OC(=O)c1ccco1 | -0.0716
